# Source: the GPR68 mutational scans of Howard et al. (2025)
# Scores whose standard error is large were omitted. Two further conditions of the source, in which the scores hardly spread, are not listed. In variant names, del marks residues removed and ins residues inserted between the two positions. For part of these data: How much ogerin was present is not stated here.
# B1: GPR68, Q15743 (parent)
# chain: MGNITADNSSMSCTIDHTIHQTLAPVVYVTVLVVGFPANCLSLYFGYLQIKARNELGVYLCNLTVADLFYICSLPFWLQYVLQHDNWSHGDLSCQVCGILLYENIYISVGFLCCISVDRYLAVAHPFRFHQFRTLKAAVGVSVVIWAKELLTSIYFLMHEEVIEDENQHRVCFEHYPIQAWQRAINYYRFLVGFLFPICLLLASYQGILRAVRRSHGTQKSRKDQIQRLVLSTVVIFLACFLPYHVLLLVRSVWEASCDFAKGVFNAYHFSLLLTSFNCVADPVLYCFVSETTHRDLARLRGACLAFLTCSRTGRAREAYPLGAPEASGKSGAQGEEPELLTKLHPAFQTPNSPGSGGFPTGRLA
# Legend:
# [1] = variants of: B1; test: cAMP reporter score (Enrich2 score, wild type = 0); higher = more signal; HEK293T, FACS bins
# [2] = variants of: B1; test: surface expression score (Enrich2 score, wild type = 0); higher = more signal; HEK293T, FACS bins
Variant,cAMP reporter score ([1]; pH 5.5),cAMP reporter score ([1]; pH 6),"cAMP reporter score ([1]; pH 6, modulator: ogerin)","cAMP reporter score ([1]; pH 6.5, modulator: ogerin)",surface expression score [2]
K330_S331insG,0.534,-0.053,0.309,0.129,-0.497
G329_K330del,0.597,–,0.676,1.23,0.031
A333_Q334insGS,0.476,0.246,0.621,0.239,0.702
E336A,1.45,-0.176,1.95,1.67,0.993
A333P,-0.16,-0.374,-0.23,-0.613,-0.892
A333C,0.741,1.17,0.997,1.66,0.459
A333D,0.309,0.085,-0.326,-0.009,0.302
A333V,-0.248,1.01,0.084,0.317,-0.5
A333Y,0.803,0.144,0.733,-0.187,0.359
A333I,0.638,-0.523,0.567,0.461,0.251
A333F,0.334,-0.295,0.039,-0.13,-0.151
A333N,1.19,3.03,–,2.31,1.41
A333L,0.473,-0.095,1.2,1.28,0.562
A333M,1.35,0.629,1.67,1.09,1.5
A333E,1.01,0.042,1.06,1,1.21
A333Q,1.13,0.649,0.853,0.316,0.289

Variant,cAMP reporter score ([1]; pH 5.5),cAMP reporter score ([1]; pH 6),"cAMP reporter score ([1]; pH 6, modulator: ogerin)","cAMP reporter score ([1]; pH 6.5, modulator: ogerin)",surface expression score [2]
A333K,-0.145,-0.101,-0.152,-0.658,0.089
A333G,0.578,–,0.947,-0.019,-0.033
A333R,2.15,2.25,2.61,1.22,1.02
A333T,-0.14,0.135,-0.025,-0.13,-0.012
A333S,1.45,-0.215,1.36,0.791,1.3
A333H,-0.371,0.088,0.543,-0.512,-0.004
A333W,-0.05,-0.043,0.06,-0.099,-0.295
G329del,0.265,-0.438,-0.249,0.569,0.097
G332_A333del,0.282,0.011,0.136,0.4,0.249
G329_S331del,1.86,0.506,0.778,1.37,0.639
G329Y,-0.789,-1.42,-0.835,-0.694,-1.13
G329S,1.13,–,0.699,0.663,1.19
G329N,1.14,1.65,1.02,2.71,0.87
G329W,-0.395,–,0.263,0.124,-0.363
G329R,1.86,-0.226,1.71,1.05,0.411
